According to paper PMC7041945, “Misfolded proteins bind and activate death receptor 5 to trigger apoptosis during unresolved endoplasmic reticulum stress” (eLife, 2020):
No constants are given. Whether binding was seen depends on the method and setting. For part of these data: In cells and extracts the contact can be indirect. Some entries that bind do so weakly or less than the wild type. For part of these data: Sequences can lack the tags named with a protein. Each block holds one binder with its values, some of them ahead of it.

Chains of the proteins cited; added tags and fusions are not shown. Residues count along the entry.
UniProt P19438, residues 30-211: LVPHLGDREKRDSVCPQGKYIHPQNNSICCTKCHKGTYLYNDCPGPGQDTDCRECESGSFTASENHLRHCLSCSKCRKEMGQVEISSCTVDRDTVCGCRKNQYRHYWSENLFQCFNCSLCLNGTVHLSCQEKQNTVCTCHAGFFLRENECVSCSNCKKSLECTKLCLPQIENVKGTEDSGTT
UniProt O14763, residues 56-440: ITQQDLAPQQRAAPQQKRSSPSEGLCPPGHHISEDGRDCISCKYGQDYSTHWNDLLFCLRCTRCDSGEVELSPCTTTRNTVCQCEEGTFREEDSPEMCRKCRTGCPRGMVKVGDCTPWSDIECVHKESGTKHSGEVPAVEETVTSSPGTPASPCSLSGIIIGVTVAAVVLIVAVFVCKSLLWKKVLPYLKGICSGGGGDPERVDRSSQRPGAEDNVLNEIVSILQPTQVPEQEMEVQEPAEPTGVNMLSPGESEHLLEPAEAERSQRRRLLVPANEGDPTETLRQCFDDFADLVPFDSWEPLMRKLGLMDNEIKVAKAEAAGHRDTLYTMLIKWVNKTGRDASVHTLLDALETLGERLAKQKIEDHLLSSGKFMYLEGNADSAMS

Legend:
Fc-tagged TNFR1 ECD = Fc-tagged TNFR1 ECD (UniProt P19438); assay: pull-down; Fc-tagged ECD held on Dynabeads Protein G, incubated with peptide in 20 mM HEPES pH 7.2, 100 mM KOAc, 0.2% Tween-20, 1 hr at RT; Coomassie-stained SDS-PAGE; both purified
[1] = target: FLAG-tagged DR5 long isoform ECD (human); assay: SEC; 25 μM recombinant DR5L ECD alone or pre-incubated overnight at 4°C with 100 or 400 μM fluorescein-conjugated peptide or 25 μM TRAIL; SuperDex200 10/300 GL, 30 mM HEPES pH 7.2, 150 mM NaCl; fractions on SDS-PAGE, fluorescence scan and Coomassie; both purified
[2] = target: AlexaFluor647-labeled DR5 long isoform ECD (human); assay: other fluorescence titration; fluorescence quenching of 200 nM AlexaFluor647-labeled ECD by a two-fold dilution series of unlabeled peptide; 20 mM HEPES pH 7.2, 100 mM KOAc, 0.1% Tween-20; 25°C, capillary scan on Monolith NT.115; apparent, Hill fit; both purified
[3] = target: death receptor 5 (DR5), endogenous (human (endogenous in HCT116)) (UniProt O14763); assay: co-IP; immunoprecipitation of DR5 with anti-DR5 mAb 5C7-conjugated agarose beads from lysates of HCT116 transfected with MPZ-GFP or the empty vector; blotted for DR5, MPZ-GFP, FADD
[4] = target: death receptor 5 (DR5), endogenous (human (endogenous in HCT116)) (UniProt O14763); assay: SEC; lysates of HCT116 transfected with MPZ-GFP or cytosolic GFP (24 hr) on SuperDex200 10/300 GL in 30 mM HEPES pH 7.2, 150 mM NaCl, 1% Triton X-100; pooled fractions blotted for DR5 and GFP
[5] = target: AlexaFluor647-labeled TNFR1 ECD (human); assay: other fluorescence titration; fluorescence quenching of 200 nM AlexaFluor647-labeled ECD by a two-fold dilution series of unlabeled peptide; 20 mM HEPES pH 7.2, 100 mM KOAc, 0.1% Tween-20; 25°C, capillary scan on Monolith NT.115; apparent, Hill fit; both purified

binding (Fc-tagged TNFR1 ECD): no binding (tested: 100 μM peptide)
Binder: VSDDISFTWRYQPEGGRD [MPZ-ecto^VD peptide]

binding [2]: no binding
Binder: FTWREQPEGGRDAISIFHEA [MPZ-ecto^Tyr→Glu peptide]

Second part, the binder before the results:

Binder: FTWREQPEGGRDAISIFHEA (fluorescein-conjugated) [fluorescein-conjugated MPZ-ecto^Tyr→Glu peptide]
binding [1]: no binding (tested: 100 μM peptide, 25 μM DR5L ECD)

B1: myelin protein zero (MPZ) tagged with a C-terminal monomeric EGFP (protein, UniProt P25189 30-248)
chain: IVVYTDREVHGAVGSRVTLHCSFWSSEWVSDDISFTWRYQPEGGRDAISIFHYAKGQPYIDEVGTFKERIQWVGDPRWKDGSIVIHNLDYSDNGTFTCDVKNPPDIVGKTSQVTLYVFEKVPTRYGVVLGAVIGGVLGVVLLLLLLFYVVRYCWLRRQAALQRRLSAMEKGKLHKPGKDASKRGRQTPVLYAMLDHSRSTKAVSEKKAKGLGESRKDKK
binding [3]: binds
binding [4]: binds

Binder: FTWRYQPEGGRDAISIFHYA [MPZ-ecto peptide]
binding [5]: no binding
